Consider 172 sequences from article PMC6212790.

Some of the results follow. At the low end of the ranking the order means little.

In this test the target is T1, GST-Rok-C97-191 (UniProt O34857).
T1 sequence: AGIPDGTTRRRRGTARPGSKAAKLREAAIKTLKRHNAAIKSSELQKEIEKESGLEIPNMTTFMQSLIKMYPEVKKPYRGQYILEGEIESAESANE
As to the kind of experiment: protein binding microarray.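 Also: rank score from −0.5 (least bound) to 0.5 (best bound).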 The note with it: Rok is a gene silencer of Bacillus subtilis; high values mean tight binding; most listed sequences are background and not binding sites; double strand, one strand shown.
Turning to CTCGCGGC, the binding signal is -0.252 E-score.

ATCTGCAT: the binding signal worked out at 0.0255 E-score.

AGGATGCC showed a binding signal of -0.0436 E-score.

In turn, ATCCTCAA returned a binding signal of 0.0905 E-score.

Turning to TAAGGTCA, the binding signal is -0.0185 E-score.

AGTTGCTG displayed a binding signal of 0.147 E-score.

Sequence ACGGCTTG showed a binding signal of -0.0924 E-score.

Regarding CTGCGATA, the binding signal was found to be 0.16 E-score.

Take AATCTGGT: the binding signal was 0.0864 E-score.

Consider GCTCGGTA, for which the binding signal worked out at 0.0228 E-score.

Take CGTCTGAA: the binding signal was -0.0845 E-score.

Regarding AAGTGCTC, the binding signal is -0.0534 E-score.

GCTTGGAA had a binding signal of -0.196 E-score.

GGACGCAA came in with a binding signal of 0.0622 E-score.

Sequence CTTGGTGA showed a binding signal of -0.19 E-score.

Sequence ATTGTCAC showed a binding signal of 0.138 E-score.

AAATTCAG came in with a binding signal of 0.131 E-score.

On to GCTACCGA, for which the binding signal came to 0.0641 E-score.

Take CAATCGCC: the binding signal is -0.327 E-score.

The sequence AATTGGAA returned a binding signal of -0.0206 E-score.

GTCATTGA came in with a binding signal of 0.014 E-score.

Take CTTGTCGC: the binding signal is -0.267 E-score.

The sequence GCTTACTA returned a binding signal of 0.0198 E-score.

For the sequence CGAATTAC, the binding signal amounted to 0.255 E-score.

ACCAAAGA displayed a binding signal of 0.0254 E-score.

AAAGACAG displayed a binding signal of -0.157 E-score.

With ATCCTAAG, the binding signal was -0.0566 E-score.

AAATGGAG had a binding signal of -0.137 E-score.

Turning to CCCATCCA, the binding signal is -0.233 E-score.

GGCCATGA had a binding signal of -0.246 E-score.

As for AGACGTTC, the binding signal is -0.172 E-score.

For ATGGTCGA, the binding signal was -0.18 E-score.

Turning to CACTTATG, the binding signal came to 0.0791 E-score.

CAGGATCG yielded a binding signal of -0.0098 E-score.

Sequence ACCTATAA returned a binding signal of 0.26 E-score.

Turning to CTGGAAAC, the binding signal is -0.0874 E-score.

With CATTGCAA, the binding signal is 0.016 E-score.

On to CAGCCTAG, for which the binding signal was -0.19 E-score.

As to ATGGTATA, the binding signal is 0.353 E-score.

Consider CCTGGGGA, for which the binding signal was -0.253 E-score.

For CATGGCCA, the binding signal was -0.0818 E-score.

ACGCCTAG returned a binding signal of -0.0162 E-score.

CCCTTCGA returned a binding signal of -0.279 E-score.

Take CTTGAGTC: the binding signal was found to be 0.0132 E-score.

For CACAAGGC, the binding signal is -0.275 E-score.

For GTTCCTCA, the binding signal was -0.174 E-score.

For AAAATATA, the binding signal worked out at 0.399 E-score.

CGGTTACC showed a binding signal of -0.125 E-score.

CAGATTAG displayed a binding signal of 0.0604 E-score.

Regarding CGGACCTC, the binding signal was -0.297 E-score.

Turning to CCACGCCC, the binding signal was -0.335 E-score.

AAGTCTAA had a binding signal of -0.0843 E-score.

In the case of CCCCTTTA, the binding signal is -0.193 E-score.

CACGCGTC gave a binding signal of -0.186 E-score.

Regarding CCTGATAA, the binding signal was 0.0642 E-score.

CAGATCAC showed a binding signal of 0.0173 E-score.

In turn, CCTATTCC registered a binding signal of -0.0529 E-score.

As for ACAAAGCA, the binding signal is 0.0742 E-score.

GGCCCCAC yielded a binding signal of -0.277 E-score.

GATCATCC yielded a binding signal of -0.161 E-score.

As to AGAGTCCT, the binding signal was -0.257 E-score.

For the sequence GCTAGTAC, the binding signal stood at 0.184 E-score.

For TATGGTCA, the binding signal worked out at 0.00657 E-score.

In turn, TAGTGTAA came in with a binding signal of 0.251 E-score.

Take AGGAAACT: the binding signal is 0.0863 E-score.

As for ATGGATGC, the binding signal is -0.0808 E-score.

ATCTGGAA showed a binding signal of 0.00973 E-score.

Turning to AAGTGGGT, the binding signal was determined as 0.213 E-score.

Take CTCTAGAC: the binding signal is -0.0555 E-score.

Take GGCAGCCC: the binding signal was -0.201 E-score.

Take AAATCACC: the binding signal was determined as 0.0056 E-score.

Consider CCGATACG, for which the binding signal is -0.0622 E-score.

With CCGAATTC, the binding signal was -0.13 E-score.

As for AGAAAGTC, the binding signal was 0.196 E-score.

Sequence CTTCCCGA gave a binding signal of -0.113 E-score.

For GTTCTGCA, the binding signal was -0.0502 E-score.

In turn, AAGTCTAG registered a binding signal of 0.0844 E-score.

As for CCTTCTTC, the binding signal is -0.263 E-score.

For AGCTCCTC, the binding signal was 0.0487 E-score.

With AAGTAGTC, the binding signal came to 0.226 E-score.

In the case of ATCGGAAG, the binding signal was -0.0836 E-score.

The sequence CACCGAGG registered a binding signal of -0.269 E-score.

In turn, TATGATGA showed a binding signal of 0.276 E-score.

The sequence CTTCTTCC registered a binding signal of -0.323 E-score.

Regarding GTTTTAGA, the binding signal came out at 0.0136 E-score.

Sequence CCGTGCAG had a binding signal of -0.0172 E-score.

ACGGTAAG: the binding signal was -0.109 E-score.

As for TCCGAAAA, the binding signal was found to be 0.0191 E-score.

On to ATAGTGGA, for which the binding signal stood at 0.1 E-score.

ACAAACGG came in with a binding signal of -0.0698 E-score.

On to CTGTGTGA, for which the binding signal worked out at 0.0703 E-score.

Sequence ATCATACA gave a binding signal of 0.161 E-score.

AGCTTAAC yielded a binding signal of -0.0342 E-score.

Sequence ACGCGACG gave a binding signal of -0.0738 E-score.

ATGTCATC: the binding signal is -0.181 E-score.

For CACTCCTC, the binding signal is -0.242 E-score.

GTCCATCA displayed a binding signal of -0.265 E-score.

Regarding ACCGGGGG, the binding signal was -0.0644 E-score.

On to AGGATAGA, for which the binding signal amounted to 0.0305 E-score.

Take ATCTAAAC: the binding signal came to 0.0603 E-score.

Consider CGAGCATC, for which the binding signal is -0.0706 E-score.

The sequence AGGTCTCG returned a binding signal of -0.345 E-score.

In turn, ATGCATAG gave a binding signal of 0.0578 E-score.

ATACCTAC came in with a binding signal of 0.333 E-score.

Turning to CTCTTTCC, the binding signal was -0.0674 E-score.

CTGCAGCC had a binding signal of -0.271 E-score.

The sequence CCTCTTTA returned a binding signal of -0.057 E-score.

As for GAGTTCAC, the binding signal is 0.0331 E-score.

CAAACTGC: the binding signal is -0.12 E-score.

GATAATAC returned a binding signal of 0.21 E-score.

In turn, GCGTCCCC had a binding signal of -0.279 E-score.

Sequence AGAGATGC came in with a binding signal of 0.0333 E-score.

On to CCGCTGTC, for which the binding signal was -0.299 E-score.

Sequence TGGTTCAA yielded a binding signal of -0.0707 E-score.

Turning to GATACACC, the binding signal was 0.0831 E-score.

Consider GCAAGAAA, for which the binding signal came to 0.0878 E-score.

CCTGGCAC displayed a binding signal of -0.187 E-score.

For the sequence ACTGTTGG, the binding signal stood at 0.0362 E-score.

CTATTCGA registered a binding signal of 0.195 E-score.

Regarding GAGTGGGC, the binding signal is -0.154 E-score.

As to GCGCGCCA, the binding signal was -0.271 E-score.

The sequence ATAATGGC had a binding signal of 0.135 E-score.

Sequence CGCGGGAG returned a binding signal of -0.107 E-score.

CCGCCGAC: the binding signal is -0.185 E-score.

GGGATGAA: the binding signal came to 0.238 E-score.

In turn, ACAACCCC yielded a binding signal of -0.207 E-score.

CAATCAGG showed a binding signal of 0.0702 E-score.

In the case of ACCCAGTG, the binding signal was -0.0503 E-score.

In turn, CGAAGCCC displayed a binding signal of -0.324 E-score.

The sequence ATTAATCA returned a binding signal of 0.117 E-score.

In turn, AGAGGAAG gave a binding signal of 0.0787 E-score.

Turning to CTTCGCCC, the binding signal is -0.236 E-score.

CATAGCGG showed a binding signal of -0.134 E-score.

CCGTAATA had a binding signal of 0.288 E-score.

Take AGGCCAGG: the binding signal was -0.349 E-score.

In turn, AAAGCGTC gave a binding signal of -0.227 E-score.

In turn, GAGGGGCC showed a binding signal of -0.361 E-score.

The sequence GGTAGTTA registered a binding signal of 0.4 E-score.

For the sequence GCTGGACA, the binding signal was -0.106 E-score.

On to GTCCCCAA, for which the binding signal was -0.141 E-score.

As to ACCGCATG, the binding signal was -0.238 E-score.

Turning to AGGTTGAA, the binding signal was -0.194 E-score.

CCGCCGGA showed a binding signal of -0.149 E-score.

As to AGAGCTGG, the binding signal is -0.0865 E-score.

The sequence CCTCGAGG showed a binding signal of -0.328 E-score.

Take GGAGTGCA: the binding signal is -0.188 E-score.

As to AATATGCC, the binding signal turned out to be 0.0302 E-score.

CGATCAAG returned a binding signal of -0.0651 E-score.

Turning to CATCTGGG, the binding signal was -0.161 E-score.

GCCCAGTA came in with a binding signal of -0.0203 E-score.

On to GCAGATGC, for which the binding signal is -0.143 E-score.

AGTTATGC: the binding signal worked out at 0.181 E-score.

On to CATAGGAA, for which the binding signal turned out to be 0.23 E-score.

As for CACACGCA, the binding signal is -0.0664 E-score.

The sequence ACGGCTTA had a binding signal of -0.144 E-score.

As for CTGAGTCA, the binding signal is -0.156 E-score.

Take AGCTTCAT: the binding signal is -0.0213 E-score.

ATTCGAGC displayed a binding signal of -0.0851 E-score.

Sequence TCTAGAAA had a binding signal of 0.205 E-score.

CCCCAAAG: the binding signal was -0.232 E-score.

In the case of ATCGAAAC, the binding signal amounted to 0.0725 E-score.

As to GATCGGAA, the binding signal was -0.00676 E-score.

Consider GGTGCTAC, for which the binding signal amounted to 0.0695 E-score.

Turning to CCGCAGCA, the binding signal is -0.182 E-score.

In the case of AGACATAC, the binding signal is -0.000506 E-score.

Turning to ACCCCTCG, the binding signal was -0.0886 E-score.

For TCTCTTAA, the binding signal was -0.00713 E-score.

As for CAGCGGCG, the binding signal was -0.248 E-score.

Turning to CTCGTTAA, the binding signal was -0.085 E-score.

GGGGCCGA registered a binding signal of -0.294 E-score.

On to ATGTGTTA, for which the binding signal was 0.0836 E-score.

CCTTAGAG came in with a binding signal of -0.374 E-score.
